Over roughly 33,000 sequences, “E-score (-0.5 to 0.5)” has its median near -0.035; the highest 2% begin near 0.35. The list shows a part of the results.
molecular target: T1, Pdr3 (UniProt P33200); test: PBM E-score (8-mer binding enrichment) (E-score (-0.5 to 0.5)); higher = stronger / more preferred TF binding; most listed sequences are background and not binding sites; conditions: protein concentration: 200 nM; construct: GST-full length
T1 sequence: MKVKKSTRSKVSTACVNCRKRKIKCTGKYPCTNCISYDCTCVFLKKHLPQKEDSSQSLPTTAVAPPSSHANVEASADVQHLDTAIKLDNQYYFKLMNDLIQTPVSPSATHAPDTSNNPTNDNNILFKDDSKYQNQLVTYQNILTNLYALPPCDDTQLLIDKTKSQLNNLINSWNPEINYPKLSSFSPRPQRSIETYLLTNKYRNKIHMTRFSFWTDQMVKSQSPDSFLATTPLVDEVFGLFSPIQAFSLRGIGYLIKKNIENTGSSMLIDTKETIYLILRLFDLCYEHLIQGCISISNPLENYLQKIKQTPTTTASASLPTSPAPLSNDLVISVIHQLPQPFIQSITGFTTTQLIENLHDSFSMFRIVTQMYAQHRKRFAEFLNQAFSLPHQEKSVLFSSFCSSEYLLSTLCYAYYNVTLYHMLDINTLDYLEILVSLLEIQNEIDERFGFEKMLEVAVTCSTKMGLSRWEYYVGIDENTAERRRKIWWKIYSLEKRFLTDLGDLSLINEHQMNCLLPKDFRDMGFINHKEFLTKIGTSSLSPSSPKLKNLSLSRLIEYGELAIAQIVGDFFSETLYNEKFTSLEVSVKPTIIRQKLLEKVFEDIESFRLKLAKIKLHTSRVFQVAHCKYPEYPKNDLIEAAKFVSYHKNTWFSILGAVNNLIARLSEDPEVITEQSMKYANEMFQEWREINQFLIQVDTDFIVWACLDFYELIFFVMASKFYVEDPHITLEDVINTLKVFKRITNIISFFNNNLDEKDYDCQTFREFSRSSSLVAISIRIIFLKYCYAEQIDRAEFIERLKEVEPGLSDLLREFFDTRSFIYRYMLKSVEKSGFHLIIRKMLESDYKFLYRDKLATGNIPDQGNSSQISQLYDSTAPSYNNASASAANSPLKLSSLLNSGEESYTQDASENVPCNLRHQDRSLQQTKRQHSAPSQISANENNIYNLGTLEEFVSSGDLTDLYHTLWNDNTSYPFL
Protocol: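 Universal 'all 10-mer' protein binding microarrays (Agilent AMADID 015681) probed with GST-tagged S. cerevisiae TFs (full-length or DBD) made by in vitro transcription/translation (PURExpress), about 100-200 nM. Bound TF was detected with fluorescent anti-GST. Each ungapped 8-mer (which stands for itself and its reverse complement) is scored by the PBM enrichment score (E-score), a modified Wilcoxon-Mann-Whitney statistic from -0.5 to +0.5, computed with the Universal PBM Analysis Suite. Scale: above 0.35 generally sequence-specific binding.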

Sequence	PBM E-score
CGCAATCC	0.218
AATTACTC	0.0695
ACTGTCAG	0.053
ACCGTGTG	0.0086
GAGGTCTA	-0.153
CCCACGAG	-0.0962
ACGTGGAG	-0.132
AGACTGTC	-0.152
CCGGCTAC	0.276
ATGCCCTA	-0.124
CCTCTTCG	-0.038
CTTGCCTC	0.0139
GCGATGGA	0.236
AGTATATA	0.245
CGCCCCAC	0.0818
AGGACTCC	-0.0588
AGCTTGCC	-0.00322
AACGAGCC	-0.132
CCACTAGA	-0.349
CATAAATA	-0.00443
CGGTGTAC	-0.0705
CTGAAAAC	-0.107
ATACTGAC	0.066
TCGAACGA	-0.0703
GAGGTATC	0.105

Sequence	PBM E-score
CCAAATAG	-0.176
ACTCATAA	-0.115
CTCTAAAG	-0.0767
AGCTCATG	-0.176
ACGCAACC	0.00065
AAGGGCAC	-0.157
GCATTGCA	-0.0198
CGGAGTCC	0.304
CGCGGCTA	0.291
ACCACCTA	-0.0964
CACTGAAC	-0.0516
ACGCGGTC	0.181
ATCCCTAG	-0.164
CTGACGCC	-0.203
CTGCCCCC	-0.195
AAAGGTAG	-0.203
TAAACAGA	-0.179
ATCACCTA	-0.314
CTCAAGCA	-0.312
AATCATGC	-0.0505
CATTCTGC	0.0977
GAGGATCC	0.235
GTCTCGTA	-0.206
ACACATGC	-0.076
CACGACGA	-0.146

Sequence	PBM E-score
ATCCGTTC	0.322
AACGGTGA	0.0895
AATACAAT	0.0802
CAAAACGA	-0.167
ATGAGATC	-0.042
CAAATTAA	0.00547
AAGTGGAG	-0.181
TCGATAGA	-0.125
TCGTTAAA	-0.121
CACATCTC	-0.0317
TCATCAAA	-0.0771
ACCCATCC	-0.0211
GAGCAATA	-0.0292
AGCACTTC	-0.127
AAGTGGGG	-0.0866
CATTAGTA	-0.0101
GAATGACC	0.198
ACGCCTAC	-0.151
AATAGTTA	-0.147
CCTTCCGC	0.38
CCTCCAAG	-0.263
ACCGTTAT	-0.0372
ACTCATCA	-0.0044
AATCGATA	0.0316
AGGCACCA	-0.0957

Sequence	PBM E-score
AGAGCCCG	0.152
ATTAACAA	0.0511
GAACACCA	0.101
TTCATCAA	0.0631
TATTCTAA	0.0298
TAGCATGA	-0.224
CGATCGAC	0.0431
ATTCAATA	-0.03
ACAGGAAT	-0.141
GCGGCTAA	0.029
GACCAGGA	0.0237
TGGGTGAA	0.192
CGAATATC	0.053
CACCTGAG	-0.0607
AGGATAAG	0.0327
AGGTAAGA	-0.124
CTAGCGAG	-0.184
ATCAACAT	-0.118
CCAGTCCC	0.0882
TGCCTCCA	-0.29
CAGCGTGC	-0.0314
ATTTTCAC	0.15
AACCAATG	-0.102
GCGTATGA	-0.194
AATTATAG	-0.0568

Sequence	PBM E-score
AAGCCAAC	-0.154
ATCAGTAC	-0.0959
ACGGGCAA	0.0751
CAGACCCG	0.279
CTACTATC	0.111
CAATTCAG	-0.0302
GTCTAAAC	-0.00121
TTCGTCAA	-0.0927
AAGAACGT	0.00511
CCCCATGC	-0.0965
AAGTAGTC	-0.112
CAAGGCCG	0.069
TCAGAGGA	-0.12
CGCTGCAG	-0.11
AGCCACTC	-0.192
GGCATAGA	0.138
GATGTTAC	-0.0497
CGAAAAAA	0.0296
ATCCCAGC	-0.0941
CTTACCTC	-0.273
ACGCTGCG	-0.124
GCAGACTA	-0.292
CATGTTCG	-0.0546
GGGATGGA	0.276
TAACGTGA	-0.26

Sequence	PBM E-score
CCGAAAGC	0.136
CGTCCCTC	0.00647
CCGTTTCC	0.332
AAGTGGCT	-0.0579
CACACTGC	0.00501
CAGTTCCA	-0.0348
AGTCCTAT	-0.165
CCTCAACA	-0.102
CGCTCAAG	-0.104
TCCCAACA	-0.0502
CGAAGCAA	-0.219
ACCCAGTC	-0.0225
AAGGTGAA	0.0207
AGTCAAGA	-0.163
ATTTGCTA	-0.119
AAAATTTT	-0.0346
AACCGTAG	-0.193
GTAGAAAC	-0.0556
CGAACCAA	-0.025
AAAGTTCG	0.0873
GGACTTAA	0.00285
AAAATCAC	-0.00967
CCCGCGAG	0.227
AAATTTTA	-0.215
GCGCCACA	-0.0755

Sequence	PBM E-score
AGACGCCC	0.0946
CCAAAATC	0.0917
AACGTGAT	-0.0792
CCGATTGA	0.126
CCATGGCG	0.195
CTTAAAGC	-0.25
CCACTGGA	-0.0718
ATCCTGAG	-0.145
ATGTGCCA	-0.147
CCTATCCC	0.188
AATTACAG	-0.0141
AGCAGTAT	-0.0252
GGGGAGAC	-0.0673
AACGTATT	0.00584
CAGCTAAA	-0.177
CAACATGA	-0.0168
GCCTTTCC	0.21
GCATATCA	0.188
GCGTTAAA	-0.0868
AAACCAAT	0.0911
GGAAACCC	0.292
AACTCAGA	-0.108
AAAATGCA	-0.0508
CCTTTCCG	0.387
CTTCACGC	0.118

Sequence	PBM E-score
CACAGTGC	0.0384
ATCCACTA	-0.0247
CTCCCGAA	0.0611
GACACTCC	0.106
CCAGGAGC	-0.231
ATCCAATG	-0.208
CTCATGGA	-0.205
GGGATGTA	0.188
AAGAGACC	0.0108
GTATTGAC	-0.194
ACGACCGA	-0.0449
GGGGAAAC	0.206
CCTTTTAA	-0.0621
CTGCGATA	-0.00547
AAGAGCCA	-0.0117
GACACATC	-0.0103
GATATAGC	0.0585
AGATACGG	0.163
TAAAGGGA	-0.0834
AAGTCCGA	0.0505
GTTTCTCA	-0.134
TAGAGGCA	-0.263
AAGCTGGA	-0.116
CACCATCA	-0.112
AACTGGTG	-0.182

Sequence	PBM E-score
CAATCGAA	-0.0354
CAAGCCCA	-0.295
AGTAGCAG	-0.124
ATCGCGAG	0.189
GAAGTTAC	0.0236
CCAATACA	-0.127
GATTGTAC	-0.286
ACTTATAA	0.0703
TCTGAGAA	-0.155
ATAAGTCA	-0.0365
CAAGCCCG	0.0363
ACCTGTGA	-0.0965
AGGTGTGG	-0.0858
GTCTAGGA	-0.256
GTATTTTA	-0.0775
AGATGGCG	0.0842
CACCATAA	-0.109
ATCATTCG	0.14
TACCAGCA	-0.135
